# The BET-seq Pho4 binding data (Le et al. 2018)
# The list shows a part of the results. The energies were worked out here from pooled read counts, against the library average; single values are noisy.
# Molecular target: T1, Pho4 (S. cerevisiae) (UniProt P07270)
# T1 sequence: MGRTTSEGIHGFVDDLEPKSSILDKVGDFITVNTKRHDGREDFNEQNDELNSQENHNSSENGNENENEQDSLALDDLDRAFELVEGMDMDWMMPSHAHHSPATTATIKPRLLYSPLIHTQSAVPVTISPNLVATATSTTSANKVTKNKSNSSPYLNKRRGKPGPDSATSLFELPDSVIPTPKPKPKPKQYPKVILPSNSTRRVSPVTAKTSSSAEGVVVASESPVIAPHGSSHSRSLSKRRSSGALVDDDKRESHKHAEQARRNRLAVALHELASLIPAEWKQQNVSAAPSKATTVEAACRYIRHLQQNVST
# Test: relative binding free energy (BET-seq); higher = weaker binding
# Conditions: reference: library average
row,Sequence,relative binding free energy [kJ/mol]
1,AGTGACACGTGGGGAA,-0.335
2,TTATGCACGTGCTGAG,-0.251
3,AGTGCCACGTGAGGGA,0.544
4,ATTGTCACGTGCGGTG,0.167
5,TTTGCCACGTGAGGAT,0.335
6,AGCATCACGTGGGCGG,-0.126
7,TTTGCCACGTGGGCGG,-1.26
8,GATGACACGTGTTATA,0.586
9,ATTTTCACGTGTTGTA,1.26
10,AGGCACACGTGTAGGG,0.293
11,ATGGGCACGTGGTTCT,-0.669
12,AGAGTCACGTGAGATA,1.3
13,GGGCTCACGTGGGAGT,0.586
14,CGGAGCACGTGATTGG,0
15,AGCGACACGTGATGGT,0.628
16,AGGCGCACGTGGGGGT,-0.753
17,GTATTCACGTGGTGGA,0.879
18,TGCACCACGTGGGGTA,-0.837
19,CGGTGCACGTGGAGGC,-0.502
20,CGACGCACGTGGGTGA,-0.335
21,AGCATCACGTGGTAGG,0.126
22,AGTGTCACGTGCGCAG,-0.837
23,GGAGACACGTGTATGC,1.17
24,CGTGTCACGTGGCGTT,-0.293
25,TTGTTCACGTGAATAG,2.09
26,TTGGACACGTGTGCAT,0.628

row,Sequence,relative binding free energy [kJ/mol]
1,GTAAGCACGTGTAGGG,-0.251
2,GAATTCACGTGTTTAA,1.63
3,TGTGACACGTGTTGGC,0.209
4,GTGTGCACGTGTGGGA,0.335
5,GTCGTCACGTGGTCAA,0.795
6,ATTCACACGTGATTTT,1.21
7,TTCTTCACGTGGATTT,1.34
8,CGTTTCACGTGTTGTC,0.837
9,TGGTACACGTGTGTTT,0.92
10,TGAGCCACGTGTAGTT,-0.293
11,AGTATCACGTGAAGTA,2.05
12,GGGTGCACGTGTTAGG,0.293
13,GGATTCACGTGTGTCT,1.46
14,CTGGACACGTGTGCGT,-0.418
15,GTGTACACGTGTGGGT,0.418
16,CGGAGCACGTGTAAGG,0.418
17,GCAGGCACGTGAGGTG,0.502
18,AATTGCACGTGATAGT,0.418
19,AGTGTCACGTGGGGGC,-0.669
20,GTGTGCACGTGACGTA,0.167
21,TAAGTCACGTGAGAGA,0.795
22,ATTAGCACGTGGGCGT,-0.669
23,TTTCGCACGTGAATGT,1
24,GTGGGCACGTGAAAGC,1.05
25,TGATACACGTGGGTAA,-0.711
26,ATGTACACGTGGGTGT,-0.293

row,Sequence,relative binding free energy [kJ/mol]
1,GTTTTCACGTGTCTGT,1.59
2,TGTGCCACGTGGTTTC,-0.335
3,CGTATCACGTGGTGGC,0.418
4,GGGAGCACGTGTCGGA,-0.418
5,TTTCGCACGTGGGAAT,-0.293
6,GTAAGCACGTGGCGTT,-1.38
7,TGCTGCACGTGATTTT,-0.0837
8,AAGAACACGTGGCGTT,0.586
9,ACTGTCACGTGGGGGG,-0.293
10,GGTCTCACGTGATAGA,1.92
11,TAGTTCACGTGATGTC,1.55
12,GCAGGCACGTGGGGGC,-1.09
13,GTATGCACGTGCAGGA,-0.46
14,TAATGCACGTGACGTG,0.628
15,GGTCGCACGTGTAGGG,-0.377
16,AGAAGCACGTGGTGGT,-0.46
17,GGTAACACGTGGTTCG,-0.126
18,AAGTTCACGTGGGGTG,0.711
19,TACGTCACGTGGGTCG,-0.293
20,AATGGCACGTGAAATG,0.586
21,TATTGCACGTGTCTTT,-0.126
22,TGTAACACGTGTGGCC,0.293
23,TGGGTCACGTGAGTGG,1.13
24,CGGAGCACGTGGTGTG,-0.335
25,TGCGTCACGTGAGATG,0.92
26,TATATCACGTGCCGTG,0.46

row,Sequence,relative binding free energy [kJ/mol]
1,GTTAACACGTGCTGTT,-0.92
2,GCATACACGTGTTTGT,0.544
3,TTAGGCACGTGGGCGA,-0.879
4,CTTGGCACGTGGACGG,-0.46
5,TGCGGCACGTGGTGTC,-0.586
6,GGACACACGTGTTTGG,0.293
7,GGGTACACGTGGCTTG,-0.0837
8,GGATTCACGTGGTGAG,1.46
9,ATGTTCACGTGGGTTA,0.879
10,TTTAGCACGTGAAGAT,0.502
11,ATCGCCACGTGGTGGG,-1.13
12,AGTTTCACGTGTAGTG,1.21
13,CGTGTCACGTGAGCGT,0.46
14,GAGTGCACGTGTGGAA,0.669
15,TGTTACACGTGTTGGG,0.586
16,TTTATCACGTGTGCTC,1.26
17,ATGGGCACGTGGTTTA,-0.377
18,GGGGTCACGTGAGCTG,1.38
19,TTGGCCACGTGCTAGG,-0.586
20,GGTTACACGTGTAATG,0.502
21,TATTGCACGTGTGGGA,0.335
22,TTGGTCACGTGACGAA,1.13
23,CTTCTCACGTGTATTG,0.837
24,TTTAGCACGTGTTATG,-0.46
25,CATAGCACGTGTAGGG,-0.544
26,GTAGGCACGTGGCTAT,-0.167

row,Sequence,relative binding free energy [kJ/mol]
1,AGAGGCACGTGGAATA,-0.167
2,GTATTCACGTGTGTCG,0.46
3,ACTTGCACGTGGGAGG,-0.669
4,TTGTGCACGTGGATAT,-0.0418
5,GAGAGCACGTGAGCGG,0.293
6,TTGGACACGTGGTGGG,0.0837
7,GTGGACACGTGTAAAG,1.17
8,GTGTACACGTGGTAGA,-0.46
9,TTAATCACGTGCAAGT,0.962
10,GCGGACACGTGGGTTG,-0.837
11,GGGCGCACGTGCAGTT,0
12,GGGTCCACGTGAAGGA,1.38
13,AAATTCACGTGGTGCG,0.92
14,GGTCTCACGTGGGCAG,0.502
15,TAGCGCACGTGTTGGT,-0.209
16,TGGTGCACGTGACAGT,0.251
17,CGGTGCACGTGGCGCT,0
18,GCTAGCACGTGTTAGG,0.335
19,TGCATCACGTGTGTGT,0.586
20,TAGTTCACGTGGAGTA,1.38
21,TAGTTCACGTGTGTTA,1.46
22,AGGCGCACGTGGGGGG,-1.09
23,TGCTTCACGTGTTGTT,1.46
24,TTGGACACGTGGATAG,0.418
25,ATTTCCACGTGTAGTG,-0.377
26,GTAGCCACGTGGGCGG,-0.795

row,Sequence,relative binding free energy [kJ/mol]
1,GGAGGCACGTGTGCGG,-0.335
2,TGGTACACGTGGGACA,-0.418
3,GAGTACACGTGCTTTG,0.795
4,GGCTGCACGTGTTAAA,1
5,ACTGTCACGTGCTGTT,0.628
6,TGTAGCACGTGGTCGG,-0.795
7,TCGGGCACGTGGTTTG,-0.418
8,CGGTGCACGTGTATGT,0.126
9,TTGTGCACGTGTAGAC,0.251
10,TAAGTCACGTGTTGAC,1
11,GTAGTCACGTGTGTGC,0.92
12,GATAACACGTGAAGGT,1.38
13,GTCTGCACGTGCAGGG,-0.544
14,GTTTCCACGTGGAGGA,1.21
15,ATGTTCACGTGAGGGG,1.3
16,TGTGACACGTGGTATT,-0.0837
17,TGGTCCACGTGTGGTG,0.335
18,TATCGCACGTGCTTTT,-0.167
19,CGTAACACGTGGATGG,0.251
20,TACATCACGTGTTTTG,0.544
21,TCAGGCACGTGAGTGG,0.335
22,TTTTGCACGTGTTAAT,0.293
23,GAGAGCACGTGTGCGT,-0.251
24,TGTTACACGTGAGAAT,1.84
25,CGTGGCACGTGCGGTG,-0.711
26,TATGTCACGTGTGTAG,0.669

row,Sequence,relative binding free energy [kJ/mol]
1,AGGCACACGTGAAGTT,0.92
2,ATTTTCACGTGGGTGC,1.17
3,TTGCTCACGTGGGGAA,0.335
4,ATTGTCACGTGTTCTG,0.669
5,ATCGTCACGTGAATGT,0.753
6,AATGGCACGTGGTTGA,-0.753
7,ATAAGCACGTGTATTT,-0.293
8,GATTACACGTGAGGTC,1.88
9,GAGTGCACGTGGGGCA,-0.167
10,GATAGCACGTGGGGGT,-0.544
11,GTTGGCACGTGGATAG,-0.418
12,ATGAACACGTGAAGGG,0.209
13,AAGTACACGTGTAGTT,-0.0837
14,GGATGCACGTGATAAT,0.502
15,AGGGACACGTGGGGAA,-0.586
16,CGCTACACGTGTTGTG,0.879
17,AGCTGCACGTGGTGTG,-0.753
18,ATGGTCACGTGGCGTT,0.837
19,ACTGGCACGTGGAGGC,-0.0837
20,AGTGTCACGTGGGGCA,-0.251
21,TGTGACACGTGGGCAT,-0.167
22,AATTACACGTGTTTTT,0.251
23,GGTCCCACGTGGGGGG,-1
24,TAGGGCACGTGAGGTT,0.209
25,ACTGTCACGTGGCGTA,0.335
26,GTTCACACGTGGGTTA,-0.293

row,Sequence,relative binding free energy [kJ/mol]
1,TATCACACGTGGTTAG,0.293
2,GGAGGCACGTGGTGCT,-0.711
3,TTGTACACGTGGCTAG,0
4,AGGATCACGTGTCGAG,0.669
5,ATAAACACGTGGTAGA,0.293
6,CGTACCACGTGTTGTG,-0.418
7,ATGCTCACGTGCGTGG,0.0418
8,AGGATCACGTGGTTAA,-0.167
9,TTTTTCACGTGCCGGT,0.92
10,TAGGACACGTGTGGGT,0.126
11,TTTGACACGTGGACTG,0.586
12,GGCTTCACGTGGCAGT,1.38
13,GCGTTCACGTGCTGTT,0.92
14,TGGAACACGTGGGCAG,-0.209
15,TTGCTCACGTGATGTG,1.21
16,AGTTGCACGTGGATGG,0.293
17,TTGGCCACGTGGCGTG,-0.544
18,TTATCCACGTGATTGG,0.502
19,TGATCCACGTGGGTGG,-0.502
20,TGAGTCACGTGTATGA,0.209
21,AAATTCACGTGTGTCT,1.05
22,GGCGTCACGTGTGGTA,0.46
23,TGGTGCACGTGTTGGG,-0.126
24,TGAGGCACGTGATCGG,0
25,ATTTGCACGTGCATAT,-0.502
26,GAAAGCACGTGTCGTG,0.335

row,Sequence,relative binding free energy [kJ/mol]
1,TGAAACACGTGAGGCG,1.38
2,ACTGTCACGTGTTGTC,0.795
3,TATTTCACGTGTACAA,1.8
4,AGGTACACGTGGCTTA,0
5,ATTTACACGTGTGGAA,0.418
6,TCCGTCACGTGGAGGG,0.502
7,GGATCCACGTGTTGAT,0.377
8,AGGCTCACGTGTGTAA,1
9,CGGTTCACGTGTTGAT,0.837
10,GAAGGCACGTGAATGA,1.51
11,GTTAACACGTGTTCTT,0
12,CTGGACACGTGGGGGT,-0.418
13,CGTAACACGTGGTAGT,-0.669
14,TTTATCACGTGATGGC,0.628
15,GAATGCACGTGTATGT,0.711
16,GGTGACACGTGAGGTG,1.3
17,GTTATCACGTGATTGC,0.962
18,TAATGCACGTGCGGTA,-0.335
19,TTAGGCACGTGTTGTC,-0.544
20,GCAGGCACGTGTAGGG,0.167
21,TGGAACACGTGGGGGA,0.126
22,GGTTTCACGTGTTGTC,2.09
